Assay [1] deals with T1, ENAP1 (two-hybrid construct tested against the ABFs, S3 Fig) (Arabidopsis) (UniProt Q8VZI9).
T1 sequence: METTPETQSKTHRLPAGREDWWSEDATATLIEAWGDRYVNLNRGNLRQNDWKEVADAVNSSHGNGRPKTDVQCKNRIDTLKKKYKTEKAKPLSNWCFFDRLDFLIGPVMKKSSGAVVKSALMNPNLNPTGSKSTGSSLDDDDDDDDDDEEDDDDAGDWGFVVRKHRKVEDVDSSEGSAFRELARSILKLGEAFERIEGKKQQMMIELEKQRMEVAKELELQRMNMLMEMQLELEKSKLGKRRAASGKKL
Briefly: two-hybrid; ProQuest Two-Hybrid System, AD and BD vectors co-transformed into yeast strain AH109; growth on SD/-Trp-Leu-His with 3'AT.

The target in a further assay is T2, BD-ABI5 (Arabidopsis) (UniProt Q9SJN0).
T2 sequence: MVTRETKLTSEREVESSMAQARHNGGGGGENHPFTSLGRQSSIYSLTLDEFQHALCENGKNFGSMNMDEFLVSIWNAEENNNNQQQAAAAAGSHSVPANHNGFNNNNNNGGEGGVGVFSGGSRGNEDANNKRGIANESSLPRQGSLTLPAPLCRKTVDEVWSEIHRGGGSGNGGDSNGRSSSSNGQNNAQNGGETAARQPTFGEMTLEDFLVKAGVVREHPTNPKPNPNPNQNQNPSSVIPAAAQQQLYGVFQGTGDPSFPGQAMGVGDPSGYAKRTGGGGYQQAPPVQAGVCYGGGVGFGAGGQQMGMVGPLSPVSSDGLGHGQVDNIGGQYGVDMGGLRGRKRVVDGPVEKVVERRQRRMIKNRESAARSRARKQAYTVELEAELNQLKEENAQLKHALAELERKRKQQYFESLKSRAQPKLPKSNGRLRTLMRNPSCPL
The description is as above.

Assay [2] deals with T3, ABI5 (endogenous) (Arabidopsis (endogenous in seeds)) (UniProt Q9SJN0).
T3 sequence: T2 sequence
Briefly: co-IP; crude proteins of seeds germinated 24h with 2 uM ABA; anti-ABI5 on Dynabeads Protein G, overnight at 4°C; Co-IP buffer 50mM Tris-Cl pH 8.0, 150mM NaCl, 1mM EDTA, 0.1% Triton X-100; blots with anti-ABI5 and anti-HA.

For assay [3], the target named is T4, ABI5 fused with the N-terminus of Venus YFP (pDEST-VYNE) (Arabidopsis) (UniProt Q9SJN0).
T4 sequence: T2 sequence
Briefly: split reporter; BiFC with Venus YFP halves in tobacco leaves, Agrobacterium infiltration, confocal microscopy two days after infiltration.

The values that follow come from publication PMC8673607, “ENAP1 retrains seed germination via H3K9 acetylation mediated positive feedback regulation of ABI5” (PLoS Genetics, 2021).

No constants are given. Whether binding was seen depends on the method and setting. For some of these results: In cells and extracts the contact can be indirect. Some binding calls cover weakened binding; strength is not graded here. Where a sequence is shown, tags or fusion partners need not be part of it.

B1: ABF4 (AD vector) (protein, UniProt Q9M7Q2 1-431)
chain: MGTHINFNNLGGGGHPGGEGSSNQMKPTGSVMPLARQSSVYSLTFDELQNTLGGPGKDFGSMNMDELLKSIWTAEEAQAMAMTSAPAATAVAQPGAGIPPPGGNLQRQGSLTLPRTISQKTVDEVWKCLITKDGNMEGSSGGGGESNVPPGRQQTLGEMTLEEFLFRAGVVREDNCVQQMGQVNGNNNNGFYGNSTAAGGLGFGFGQPNQNSITFNGTNDSMILNQPPGLGLKMGGTMQQQQQQQQLLQQQQQQMQQLNQPHPQQRLPQTIFPKQANVAFSAPVNITNKGFAGAANNSINNNNGLASYGGTGVTVAATSPGTSSAENNSLSPVPYVLNRGRRSNTGLEKVIERRQRRMIKNRESAARSRARKQAYTLELEAEIEKLKKTNQELQKKQAEMVEMQKNELKETSKRPWGSKRQCLRRTLTGPW
As to B1, the binding result in assay [1] is on record as “no binding”.

B2: AD-ENAP1 (protein, UniProt Q8VZI9 1-249)
chain: T1 sequence
In the case of B2, in the assay with BD-ABI5 (Arabidopsis), the binding result is given as “binds”.

B3: ENAP1:YFP:HA (35S::ENAP1:YFP:HA, ENAP1ox) (protein, UniProt Q8VZI9 1-249)
chain: T1 sequence
In the case of B3, the binding result in assay [2] is on record as “binds”.

B4: ENAP1 fused with the C-terminus of Venus YFP (pDEST-VYCE) (protein, UniProt Q8VZI9 1-249)
chain: T1 sequence
In the case of B4, the binding entry in assay [3] is given as “binds”.

B5: ABF1 (AD vector) (protein, UniProt Q9M7Q5 1-392)
chain: MGTHIDINNLGGDTSRGNESKPLARQSSLYSLTFDELQSTLGEPGKDFGSMNMDELLKNIWTAEDTQAFMTTTSSVAAPGPSGFVPGGNGLQRQGSLTLPRTLSQKTVDEVWKYLNSKEGSNGNTGTDALERQQTLGEMTLEDFLLRAGVVKEDNTQQNENSSSGFYANNGAAGLEFGFGQPNQNSISFNGNNSSMIMNQAPGLGLKVGGTMQQQQQPHQQQLQQPHQRLPPTIFPKQANVTFAAPVNMVNRGLFETSADGPANSNMGGAGGTVTATSPGTSSAENNTWSSPVPYVFGRGRRSNTGLEKVVERRQKRMIKNRESAARSRARKQAYTLELEAEIESLKLVNQDLQKKQAEIMKTHNSELKEFSKQPPLLAKRQCLRRTLTGPW
As to B5, the binding result in assay [1] is listed as “no binding”.

B6: ABF3 (AD vector) (protein, UniProt Q9M7Q3 1-454)
chain: MGSRLNFKSFVDGVSEQQPTVGTSLPLTRQNSVFSLTFDEFQNSWGGGIGKDFGSMNMDELLKNIWTAEESHSMMGNNTSYTNISNGNSGNTVINGGGNNIGGLAVGVGGESGGFFTGGSLQRQGSLTLPRTISQKRVDDVWKELMKEDDIGNGVVNGGTSGIPQRQQTLGEMTLEEFLVRAGVVREEPQPVESVTNFNGGFYGFGSNGGLGTASNGFVANQPQDLSGNGVAVRQDLLTAQTQPLQMQQPQMVQQPQMVQQPQQLIQTQERPFPKQTTIAFSNTVDVVNRSQPATQCQEVKPSILGIHNHPMNNNLLQAVDFKTGVTVAAVSPGSQMSPDLTPKSALDASLSPVPYMFGRVRKTGAVLEKVIERRQKRMIKNRESAARSRARKQAYTMELEAEIAQLKELNEELQKKQVEIMEKQKNQLLEPLRQPWGMGCKRQCLRRTLTGPW
Consider B6, for which, in assay [1], the binding entry is given as “no binding”.

B7: ABF2 (AD vector) (protein, UniProt Q9M7Q4 1-416)
chain: MDGSMNLGNEPPGDGGGGGGLTRQGSIYSLTFDEFQSSVGKDFGSMNMDELLKNIWSAEETQAMASGVVPVLGGGQEGLQLQRQGSLTLPRTLSQKTVDQVWKDLSKVGSSGVGGSNLSQVAQAQSQSQSQRQQTLGEVTLEEFLVRAGVVREEAQVAARAQIAENNKGGYFGNDANTGFSVEFQQPSPRVVAAGVMGNLGAETANSLQVQGSSLPLNVNGARTTYQQSQQQQPIMPKQPGFGYGTQMGQLNSPGIRGGGLVGLGDQSLTNNVGFVQGASAAIPGALGVGAVSPVTPLSSEGIGKSNGDSSSLSPSPYMFNGGVRGRKSGTVEKVVERRQRRMIKNRESAARSRARKQAYTVELEAEVAKLKEENDELQRKQARIMEMQKNQETEMRNLLQGGPKKKLRRTESGPW
B7: the binding entry in assay [1] was “no binding”.
